Assay results as given in PubChem BioAssay AID624417 (National Center for Advancing Translational Sciences (NCATS), 2012).
Hit rate of the full screen: of about 410,000 compounds, about 6,400 (1.6%) were called active. The inconclusive results got no clear call from the source; some entries with a clear call stand among them for comparison. Calls come from the whole dose curve; as a rule, active = well fitted inhibition curve with a large enough effect; inconclusive = small, poorly fitted or top-dose-only effect; inactive = no such curve, though single readings can be large or run the other way. No potency is given beside an inconclusive call; the fits are too rough.

molecular target: Glucagon-like peptide 1 receptor (Homo sapiens) (UniProt P43220); test: qHTS of GLP-1 Receptor Inverse Agonists (Inhibition Mode); details: HEK293 GLP-1R CRE-luciferase, luminescence, 24 h, GLP-1R form is constitutively active; series mostly up to 38.3 µM; note: nearly all actives have a fitted effect of over 55% in size
Method in brief: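 Readout was luciferase luminescence, measured 12 min after detection reagent at room temperature. Beforehand, GLP-1R reporter HEK293 cells had sat 12 h, then received compounds for 24 hr at 37 deg C.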
Potency is the fitted concentration of half-maximal effect; tags give direction and shape of the fitted curve.

Sequence of UniProt P43220 (P43220 whole entry, looked up): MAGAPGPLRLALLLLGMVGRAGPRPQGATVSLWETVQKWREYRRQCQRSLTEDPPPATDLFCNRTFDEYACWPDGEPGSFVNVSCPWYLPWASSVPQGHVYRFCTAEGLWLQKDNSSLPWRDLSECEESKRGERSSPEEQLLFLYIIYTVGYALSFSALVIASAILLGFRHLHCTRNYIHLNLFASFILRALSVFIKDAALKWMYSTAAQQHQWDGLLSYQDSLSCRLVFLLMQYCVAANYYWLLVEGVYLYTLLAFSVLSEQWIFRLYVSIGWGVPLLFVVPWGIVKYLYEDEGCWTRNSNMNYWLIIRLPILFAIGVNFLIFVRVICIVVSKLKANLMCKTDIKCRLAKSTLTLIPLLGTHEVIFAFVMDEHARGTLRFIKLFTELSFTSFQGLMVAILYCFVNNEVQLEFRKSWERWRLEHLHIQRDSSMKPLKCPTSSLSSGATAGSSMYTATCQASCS

**Q.** `CC1CCCN(c2nc3c(c(=O)n(C)c(=O)n3C)n2Cc2ccccc2)C1` (stereo unspecified) was tested. Which Potency did it give?
**A.** inconclusive [inhibitor, single point]

**Q.** Which Potency does the source give for `O=C(Nc1cccc(-c2nnc(-c3ccco3)o2)c1)c1ccccc1` here?
**A.** inactive

**Q.** How did the Potency turn out when `Nc1c(S(=O)(=O)c2ccccc2)c2nc3ccccc3nc2n1/N=C/c1ccco1` was run?
**A.** inactive

**Q.** For `CCN(CC)c1ccc(C(=O)c2cnc(/N=C/N(C)C)s2)cc1`, which Potency is on record?
**A.** inconclusive [inhibitor, partial curve, poor fit]

**Q.** `O=C(CNc1cccc2ccccc12)N/N=C/c1ccc(OC(=O)/C=C/c2ccco2)cc1` was tested. Which Potency did it give?
**A.** active: 8.91 µM

**Q.** For `CSc1ncccc1C(=O)Nc1nc2ccc(Oc3ccccc3)cc2s1`, which Potency is on record?
**A.** inconclusive [inhibitor, single point]

**Q.** For `COc1ccc(S(=O)(=O)N2CCN(c3nc(C)cc(C)n3)CC2)cc1`, which Potency is on record?
**A.** inconclusive [inhibitor, partial curve, poor fit]

**Q.** `COc1ccccc1CC(=O)OC(C)C(=O)Nc1ccc(S(=O)(=O)N2CCCCC2)cc1` (stereo unspecified) was tested. Which Potency did it give?
**A.** inconclusive [inhibitor, single point]

**Q.** How did the Potency turn out when `COc1ccccc1N1CCN(C2CCCN(Cc3cc(F)cc(F)c3)C2)CC1` (stereo unspecified) was run?
**A.** inconclusive [inhibitor, partial curve, poor fit]

**Q.** With `Clc1ccc2c(c1)-c1nnc(Br)n1-c1ccccc1S2` as the compound, how does the Potency read?
**A.** inconclusive [inhibitor, single point]

**Q.** For `CCN1CCN(CCc2nc3cc(NC(=O)COc4ccc(Cl)cc4)ccc3n2C)CC1`, which Potency is on record?
**A.** inconclusive [inhibitor, partial curve, poor fit]

**Q.** How did the Potency turn out when `CC1CC(C)CN(CC(=O)N2CCc3[nH]c4ccccc4c3C2)C1` (stereo unspecified) was run?
**A.** inconclusive [inhibitor, single point]

**Q.** With `COc1cccc(C(=O)Oc2c(Sc3ccc(C)cc3)c(C)nn2C(C)(C)C)c1OC` as the compound, how does the Potency read?
**A.** active: 3.16 µM

**Q.** Which Potency does the source give for `CCc1occc(=O)c1Oc1cc(NN2CCCCC2)c([N+](=O)[O-])cc1[N+](=O)[O-]` here?
**A.** inconclusive [inhibitor, single point]

**Q.** With `COC(=O)c1cccc(NC(=O)c2cccnc2)c1` as the compound, how does the Potency read?
**A.** inactive

**Q.** With `CCc1ccc(NC(=S)N2CCN(S(=O)(=O)c3ccccc3)CC2)cc1` as the compound, how does the Potency read?
**A.** inconclusive [inhibitor, partial curve, poor fit]

**Q.** Which Potency does the source give for `Cc1ccc(NC(=O)C2CCN(C(=O)c3ccccc3C)CC2)cc1` here?
**A.** inconclusive [inhibitor, partial curve, poor fit]

**Q.** For `CCCC(c1nnnn1CCc1ccccc1)N1CCN(C2CCCC2)CC1` (stereo unspecified), which Potency is on record?
**A.** inconclusive [inhibitor, partial curve, poor fit]

**Q.** For `CC(=O)c1c(C)oc2c1cc(NS(=O)(=O)c1ccc(C(C)(C)C)cc1)c1ccccc12`, which Potency is on record?
**A.** active: 11.2 µM

**Q.** With `CCCCC[C@@H](/C=C/C1C(=O)C=C[C@H]1C/C=C\CCCC(=O)OC)OC(C)=O` (stereo partly specified) as the compound, how does the Potency read?
**A.** inconclusive [inhibitor, single point]

**Q.** For `O=C(CSc1ncnc2scc(-c3ccccc3)c12)N1CCN(Cc2ccc3c(c2)OCO3)CC1`, which Potency is on record?
**A.** inconclusive [inhibitor, partial curve]

**Q.** `Cc1ccc(CNC(=O)C(C)n2nc(C)c3sc4ccccc4c3c2=O)cc1` (stereo unspecified) was tested. Which Potency did it give?
**A.** inactive

**Q.** Which Potency does the source give for `O=C(c1cn(-c2ccccc2)nc1-c1ccc(Cl)s1)N1CCOCC1` here?
**A.** inconclusive [inhibitor, partial curve, poor fit]

**Q.** How did the Potency turn out when `CCN1CCN(Cc2ccccc2NC(=O)Nc2ccc(C)cc2)CC1` was run?
**A.** inactive

**Q.** How did the Potency turn out when `CCN(CCCNC(=O)c1nn(-c2ccc(C)cc2)c(=O)c2c1c1ccccc1n2C)c1cccc(C)c1` was run?
**A.** inactive

**Q.** With `Cc1ccc2c(c1)-c1c(c(C(=O)N3CCN(c4cc(C)ccc4C)CC3)nn1C)CS2` as the compound, how does the Potency read?
**A.** inactive

**Q.** `Cc1ccnc(NC(=O)c2cc3cc(F)ccc3s2)c1` was tested. Which Potency did it give?
**A.** inconclusive [inhibitor, single point]

**Q.** How did the Potency turn out when `O=C(NC(c1ccc(Cl)cc1)c1cnccn1)C1CCN(Cc2cccc(C(F)(F)F)c2)CC1` (stereo unspecified) was run?
**A.** inconclusive [inhibitor, single point]

**Q.** `Cc1ccc(Cl)cc1NC(=S)N(CCN(C)C)C(C)c1ccccn1` (stereo unspecified) was tested. Which Potency did it give?
**A.** inconclusive [inhibitor, full curve, poor fit]

**Q.** `Cc1cccc(NC(=O)CN2C(=O)C(c3ccc(F)cc3)=NC23CCCCCC3)c1` was tested. Which Potency did it give?
**A.** inconclusive [inhibitor, single point]

**Q.** For `CC1CCCCN1c1nnc(NC(=O)c2cc(-c3ccc(Br)cc3)on2)s1` (stereo unspecified), which Potency is on record?
**A.** inconclusive [inhibitor, full curve, poor fit]

**Q.** For `COc1ccc(-c2cc(NC(=O)c3cncn3-c3ccccc3)ccc2OC)cc1`, which Potency is on record?
**A.** inconclusive [inhibitor, single point]

**Q.** Which Potency does the source give for `Cc1ccc(NC(=O)COc2ccccc2)cc1S(=O)(=O)N1CCCCCC1` here?
**A.** inconclusive [inhibitor, partial curve, poor fit]

**Q.** How did the Potency turn out when `Cc1nn2c(C)c(C(=O)NCc3ccc(OC(C)C)cc3)cnc2c1-c1ccc(F)cc1` was run?
**A.** inactive

**Q.** `Nc1nnc(-c2ccc([N+](=O)[O-])o2)s1` was tested. Which Potency did it give?
**A.** inactive

**Q.** Which Potency does the source give for `CCCN(CCC)CC(O)CN(c1ccccc1)S(=O)(=O)c1ccc(C)cc1` (stereo unspecified) here?
**A.** inconclusive [inhibitor, single point]

**Q.** With `Nc1nn(-c2ccccc2)c(N)c1N=Nc1ccc2c(c1)OCO2` as the compound, how does the Potency read?
**A.** inconclusive [inhibitor, partial curve, poor fit]

**Q.** For `COc1cccc(-n2c(SCc3ccc(F)cc3)nc3c([nH]c4ccccc43)c2=O)c1`, which Potency is on record?
**A.** active: 8.91 µM

**Q.** `CCOC(=O)CCCCCC(=O)Nc1ccc2c(c1)C(=O)N([C@H](C)CO)C[C@@H](C)[C@H](CN(C)S(=O)(=O)c1cn(C)cn1)O2` was tested. Which Potency did it give?
**A.** inactive

**Q.** With `CN(Cc1ccccc1)C(=O)c1ccccc1C(=O)OCC(=O)N(Cc1ccccc1)C(C)(C)C` as the compound, how does the Potency read?
**A.** inconclusive [inhibitor, partial curve, poor fit]

**Q.** `CC(C)C(=O)N1CCN(c2ccccc2NC(=S)NC(=O)c2ccco2)CC1` was tested. Which Potency did it give?
**A.** inactive
